# Measured values published in the RNAGym collection of RNA variant scans (doi:10.7554/elife.90254).
# Read counts are not given, so values of variants with three or more changes are uncertain.
# B1: LINE1-full (parent)
# chain: UACGUAGGUGGUUUUCCCCUGAUAGUGCUAAGGGGGCCUGGAAGUUUGGACUGGGCAGAGCUCAACACAGCGUGGCAAAGUGGCUGUGGCUAGACUGCCUCUCUGGAUUCCUCGUCACUCAGCAGGGCAUCUCUGAGAGAAAUGCC
# Variants of: B1
# Experiment: self-cleavage, relative activity (ratio to wild type); higher = more cleavage; in vitro, sequencing; the parent is a self-cleaving ribozyme
row,Variant,self-cleavage
1,UACGUAGGUGGUUUUCCCCUGAUAGUGCUAAGGGGGCCCUGAAGUUUGGACUGGGCAGAGCUCAACACAGCGUGGCAAAGUGGCUGUGGCUAGACUGCCUCUCUGGAUUCCUCGUCACUCAGCAGGGCACCUCUGAGAGAAAUGCC,1.86
2,UACGUGGGUGGUUUUCCCCUGAUAGUGCUAAGGGGGCCUGGAAGUUUGGACUGGGCAGAGCUCAACACAGCGUGGCAAAGUGGCUGCGGCUAGACUGCCGCUCUGGAUUCCUCGUCACUCAGCAGGGCAUCUCUGAGAGAAAUGCC,0
3,UACGUAGGAGGUUUUUCCCUGAUAGUGCUAAGGGGGCCUGGAAGUUUGGACUGGGCAGAGCUCAACACAGCAUGGCAAAGUGGCUGUGGCCAGACUGCCUCUCUGGAUUCCUCGUCACGCAGCAGGGCGUCUCUGGGAGAAAUGCC,0
4,UACGUAGGUGGUUUUCCCCUGAUAGUGCUUAGGGGGCCUGGAAGUUUGGGCUGGGCAGAGCACAACACAGCGUGGCAAAGUGGCUGUGGCUAGACUGCCUCUCUGGAUUCCUCGUCACUCAGCAGGGCAUCUCUGAGAGAAAUGCC,0.17
5,CACGUAGGUGGUUUUCCCCUGAUAGUGCUAAGGGGGCCUGGAAGUUUGGACUGGGCAGAGCUCAACACAGCGUGGCAAUGUGGCUGUGGCUAGACUGCCUCUCUGGAUUCCUCGUCACUCAGCAUGGCAUCUCUGAGAGAAAUGCC,0.91
6,UACGUAGGUGGUUUUCCCCUGAUAGUGCUAAGGGGGCCUGGAAGCUUGGACUGGGCAGAGCUCAACACAGCGUGGCAAAGUGGCUGUGGCUAGACUGCCUCUCUGGAUUCCUCGUCACACAGCAGGGCAUCUCUGAGGGAAAUGCC,1.85
7,UACGUAGGUGGUUUUCCCCUGAUAGUGCUAAGGGGGCCUGGAAGUUUGGACUGGGCAGAGCUCAACGCAGCGUGGCAAAGUGGCUGUGGCUAGGCUGCCUCUCUGGAUACCACGUCACUCAGCAGGGCAUCUCUGAGAGAAAUGCC,0.38
8,UACGUAGGUGGUUUUCCCCUGAUAGUGCUAAGGGGGCCUAGAAGUUUGGACUGGGCAGAGCUCAACACAGCGUGGCAAAGUGGCUGUGGCUAGACUGCCUCUCCGGAUUCCUCGUCACUCGGCAGGGCAUCUCUGAGAGAAAUGCC,1.53
9,UACGUAGGUGGUUUUCCCCUGAUAGUGCCAAGGGGGCCUGGAAGUUUGGACUGGGCAGAGCUCAACACAGCGUGGCAAAGUGGCUGUGGCUAGACUGCCUCUCUGGAUUCCUCGUCACUCAGCAUGGCAUCUCUGGGAGAAAUGCC,1.54
10,UACGUAGGUGGUUUUCCCCCGAUAGUGCUAAGGGGGCCUGGAAGUUUGGACUGGGCAGAGCUCAACACAGCGUGGCAAAGUGGCCGUGGCUAGACCGCCUCUCUGGAUUCCUCGUCACUCAGCAGGGCAUCUCUGAGAGAAAUGCC,0.19
11,UACGUAGGUGGUUACCCCCUGAUAGUGCUAAGGGGGCCUGGAAGUUUGGACUGGGCAGAGCUCAACACAGCGUGGCAAAGUGGCUGUGGCUAGACUGCCUCUCUGGAUUCCUCGUCACUCAGCAGGGCAUCGCUGAGAGAAAUGCC,2.92
12,UACGUAGGUGGUUUUCCCCUGAUAGUGCUAAGGGGGCCCGGAAGUUUGGACUGGGCAGAGCUCAACACAGCGUGGCAAAGUGGCCGUGGCUAGACUGCCUCUCUGGAUUCCUCGUCACACAGCAGGGCAUCUCUGAGAGAAACGCC,0
13,UACGUAGGUGGGUUUCCCCUGAUAGUGCUAAGGGGGCCUGGAAGUUUGGACAGGGCAGAGCUCAACACAGCGUGGCAAAGUGGCUGUGGCUAGACUGCCUCUCUGGACUCCUCGUCACUCAGCAGGGCAUCUCUGAGAGAAAUGCC,1.84
14,UACGAAGGUGGUUUUCCCCUGAUAGUGCUAAGGGGGCCUGGAAGUUUGGACUGGGCAGAGCACAACACAGCGUGGCAGAGUGGCUGUGGCUAGACUGCCUCUCUGGAUUCCCCGUCACUCAGCAGGGCAUCUCUGAGAGAAAUGCC,0.07
15,UACGUAGGUGGUUUUCCCCCGAUAGUGCUAAGGGGGCCUGGAAGUUUGGACUGGGCAGAGCUCAACACAGCGUAGCAAAGUGGCUGUGGCUAGACUGCCUCUCUGGAUUCCUCGUCACUCAGCAGGGCAUCUCUGAGAGGAAUGCC,1.79
16,UACGUAGGUGAUUUUCCCCUGAUAGUGCUAAGGGGGCCUGGAAGUUUGGACUGGGCAGAGCUCAACACAGCGUGGCAAAGCGGAUGUGGCUAGACUGCCUCACUGGAUUCCUCGACACUCAGCAGGGCAUCUCUGAGAGAAAUGCC,0.2
17,UACAUAGGUGGUUUUCCCCUGAUAGUGCUAAGGGGGCCUGGAAGUUUGGACUGGGCAGAGCUCAACACAGCGUGGCAAAGUGGCAGUGGCUAGACUGCCUCUCUGGAUUCCUCGUCACUCAGCAGGGCAUCUCUGAGAGAAAUACC,0.09
18,UACGUAGGUGGUUCUCCCCUGGUAGCGCUAAGGGGGCCUGGAAGUUUGGACUGGGCAGAGCUCAACACAGCGUGGCAAAGUGGCUGUGGCUAGACUGCUCCUCUGGACUCCUCGUCACUCAGCAGGGCAUCUCUGAGAGAAAUGCC,0
19,UACGUAGGUGGUUUUCCCCUGAUAGUGCUAUGGGGGCCUGGAAGUUUUGACUGGGCAGAGCUCAACACAGCGUGGCAAGGUGGCUGUGGCUAGACUGCCUCUCUGGAUUCCUCGUCACUCAGCAGGGCAUCUCUGAGAGAAAUGCC,0.48
20,UACGUAGGUGGUUUUCCCCUGAUAGUGCUAAGGGGGCCUGGAAGUUUGGACUGGGCAGAGCUCAACACAGCAUGGCAAAGUGGCUGUGGCUAGACUGCCUCUCUGGGUUCCUCGUCACUCAGCAGGGCAUCUCUGAGAGAUAUGCC,1.43

row,Variant,self-cleavage
1,UACGUAGGUGGUUUUCCCCUGAUAGUGCUAAGGGGGCCUGGAAGUCUGGACUGGGCAGAGCUCAACACAGCGAGGCAAAGUGGCUGUGGCUAGACUGCCUCUCUGGAUUCCUCGUCACUCAGCAGGGCAUCUCUGAGAGAAAUGCU,2.06
2,UACGUUGGUGGUUUUCCCCUGACAGUGCUAAGGGGGCCUGGAAGUUUGGACUGGGCAGAGCCCAACACAGCGUGGCAAAGUGGCUGUGGCUAGACUGCCUCUCUGGAUUCCUCGUCACUCAGCAGGGCAUCUCUGAGAGAAAUGCC,0.37
3,UACGUAGGUGGUUAUCCCCUGAUAGUGCUAAGGGGGCCUGGAAGUUUGGACUGGGCAGUGCUCAACACAGCGUGGCAAAGUGGCUGUGGCCAGACUGCCUCUCUGGAUUCCUCGUCACUCAGCAGGGCAUCUCUGAGAGAAAUGCC,0.27
4,UACGUAGGUGGUUUUCCCCUGGUAGUGCUAAGGGGGCCUGGAAGUUUGGACUGGGCAGAGCUCAACACAGCGAGGCAAAGUGGCUGUGGCUAGACUGCCUCUCUGGAUCCCUCGUCACUCAGCAGGGCAUCUCUGAGAGAAAUGCC,1.8
5,UACGUAGGUGGUUUUCCCCUGAUAGUGCUAGGGGGGCCUGGAAGUUUGGACUGGGCAGAGCUCAACACGGCGUGGCAAAGUGGCUGUGGCUAGACUGCCUCUCUGGAUUCCUCGUCGCUCAGCAGGGCAUCUCUGAGAGAAAUGCC,1.31
6,UACGUAGGUGGUUUUCCCCUGAUAGUGCUAAGGGGGCCUGGAAGUUUGGACUGGGCAGAGCUCAACACUGCGUGGCAAAGUGGCUGUGGCCAGACUGCCUCUCUGGAUUCCUCGUCACUCAGCAGUGCAUCUCUGAGAGAAGUGCC,0.13
7,UACGUAGGUGGUUUUCCCCUGAUAGUGCUAAGGGGGCCUGGAAGUUUGGACUGGGCAGAGCUCGACACAGCGUGGCAAAGUGGCUGUGGCUAGACUGCCUCUCAGGAUUCAUCGUCACUCAGCAGGGCAUCUCAGAGAGAAACGCC,0.33
8,UACGUAGGUGGUUUUCCCCUGAUAGUGCUAAGGUGGCCUGGAAGUUUGGACUGGGCAGAGCUCAACACAGCGUGACAGAGUGGCUGUGGCUAGACUGCCUCUCUGGAUUCCUCAUCACUCAGCAGGGCAUCUCUGAGAGAAAUGCC,0.43
9,CACGUAGGUGGUUUUCCCUUGAUAGUGCUAAGGGGGCCUGGAAGUUUGGACUGGGCAGAGCUCAACACAGCGUGGCAAAGUGGCUGUGGCUAGACUGCCUCUCUGGAUUCCUCGUCACUCAGCAGGGCAUCCCUGAGAGAAAUGCC,0.81
10,UACGUAGGUGGUUUUCCCCUGAUAGGGCUAAGGGGGCCUGGAAGUUUGGACUGGGCAGAGCUCAACACAGCGUGGCAAAGUGGCAGUGGCUAGACUGCCUCUCUGGAUUCCUCGUCACUCAGCAGGGCGUCUCUGAGAGAAAUGCC,0.12
11,UACGUAGGUGGUUUUCCCCUGAUAGUGCUAAGGGGGCCUGGUAGUUUGGACAGGGCAGAGCUCAACACAGCGUGGCAAAGUAGCUGUGGCUAGACUGCCUCUCUGGAUUCCUCGUCACUCAGCAGGGCAUCUCUGAGAGAAAUGCC,1.58
12,UACGUAGGUGGUUUUCACCUGAUAGUGCUAAGGGGGCCUGGGAGAUUGGACUGGGCAGAGCUCAACACAGCGUGGCAAAGUGGCUGUGGCUAGACUGCCUCUCUGGAUUCCUCGUCACUCAGCAGGGCAUCUCUGAGAGAAAUGCC,1.04
13,UACGUAGGUGGUUUUCCCCUGAUAGUGCUAUGGGGGCCUGGAAGUUUGGACUGGACAGAGCUCAACACAGCGUGGCACAGCGGCUGUGGCUAGACUGCCUCUCUGGAUUCCUCGUCUCUCAGCAGGGCAUCUCUGAGAGAAAUGCC,0.21
14,UACGUAGGUGGUUUUCCCCUGGUAGUGCUGAGGGGGCCUGGAAGUUUGGACUGGGCAGAGCUCAACACAGCGUGGCAAAGUGGCUGUGGCUAGACUGCCUCUCUGGAUUCCUCGUCACUCAGCAGGGCAUCUCUGAGGGAAAUGCC,0.92
15,UACGUAGGUGGUUUUCCCCUGAUAGUGCCAAGGGGGCCUGGAAGUUUGGACAGGGCAGAGCCCAACACAGCGUGGCAAAGUGGCUGUGGCUAGACUGCCUCUCUGGACUCCUCGUCUCUCAGCAGGGCAUCUCUGAGGGAAAUGCC,0
16,UGCGUAGGAGGUUUUCCCCUGAUAGUGCUAAGGGGGCCUGGAAGUUUGGACCGGGCAGAGCUCAACACAGCGUGGCAAAGUGGCUGUGGCUAGACUGCCUCUCUGGAUUCCUCGUCACUCAGCAGGGCAUCUCUGAGAGAAAUGCC,0.28
17,UACGUAGGUGGUUUUCCCCUGGUAGUGCUAAGGGGGCCUGGAAGUUUGGACUGGGCAGAGCUCAACACAGCGUGGCAAAGUGGCUGUGGCUAGACUGCCUCUCUGGAUUCCUCGUCGCUCAGCAGGGCAUCUCUGAGAGAAGUGCC,0.92
18,UACGUAGGUGGUUUUCCCCUGAUAGCGCUAAGGGGGCCUGGAAGUUUGGGCUGGGCAGGGCUCAACACAGCGUGGCAAAGUGGCUGUGGCUAGACUGCCUCUCUGGAUUCCUCGUCACUCAGCAGGGCAUCUCUGAGAGAAAUGCC,0
19,UACGUAGGUGGUUUUCCCCUGAUAGUGCUAAGGGGGCCUGGAAGUUUGGACUGGGCAGAGCUCAACACAGGGUGGCAAAGUGGCUGUGGCUAGACUGCCUCGUUGGUUUCCUCGUCACUCAGCAGGGCAUCUCUGAGAGAAGUGCC,1.18
